Measured values as given in PubChem BioAssay AID652104 (National Center for Advancing Translational Sciences (NCATS), 2013).
The whole screen tested about 410,000 compounds, of which about 7,200 (1.8%) were called active. Inconclusive means that the source gave no clear call. Such entries were picked first, then a sample of the others. Calls come from the whole dose curve; as a rule, active = well fitted activation curve with a large enough effect; inconclusive = small, poorly fitted or top-dose-only effect, or another doubt; inactive = no such curve, though single readings can be large or run the other way. Potencies beside an inconclusive call are fits to weak or partial responses and may not hold up.

Assay: qHTS of TDP-43 Inhibitors; note: nearly all actives have a fitted effect of over 50% in size; for growth rescue (activation): % of control where 0% means no effect
Conditions: TDP-43 expressing yeast growth rescue, BacTiter-Glo, 24 h; growth rescue (activation): at 46.1 µM (top of the series) unless noted
Summary of the method: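 Luminescence from BacTiter-Glo reports growth of TDP-43-expressing yeast after 24 hr at 30 deg C with compound. Cells were raffinose-pregrown to mid-log, then seeded in galactose medium at OD600=0.02.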
Potency is the fitted concentration of half-maximal effect; tags give direction and shape of the fitted curve.

Potency, active:
CCCOC(=O)c1cccc(Nc2nc(-c3cccnc3)nc3ccccc23)c1 22.4 µM
CC(=O)Oc1[nH]c(=O)c2cccc3c2c1CCC3 28.2 µM
Nc1ccc2nc(SCc3ccccc3F)sc2c1 12.6 µM
CC(C)c1ccc(Nc2c(-c3ccccc3O)nc3cnccn23)cc1 25.1 µM
Clc1cccc(CNc2ccn3nc(-c4ccco4)cc3n2)c1 15.8 µM

Potency, inactive:
COc1ccc(N2CCN(C(=O)c3nc(-c4ccc(Cl)cc4)n4c3CCCCC4)CC2)cc1
O=C1CNC(=S)N1Cc1ccc(Cl)cc1
CCc1ccc(OCC(=O)NCc2nc(-c3cccc(C)c3)no2)c(Br)c1
CC[n+]1cc(-c2ccccc2)nc(N2CCOCC2)n1
Cc1ccc(C)c(S(=O)(=O)c2nnn3c2nc(Nc2ccc(F)c(Cl)c2)c2sccc23)c1
O=C(C/C=N/OCc1ccccc1F)c1cnc(-c2ccc(Cl)cc2)s1

Potency, inconclusive:
COc1ccc(S(=O)(=O)NC(=O)C2(C)CCN2C(=O)C2(c3ccccc3)CCCC2)cc1 (stereo not drawn) 35.5 µM [activator, partial curve, poor fit]
CS(=O)(=O)N1CCc2cc(C(=O)N3CCN(c4ccc(F)cc4)CC3)ccc21 0.562 µM [activator, partial curve, poor fit]
COc1ccc(CCNC(=O)C2CC(c3ccc([N+](=O)[O-])cc3)=NO2)cc1 (stereo not drawn) 11.2 µM [activator, partial curve]
CC(C)(C)C(=O)C(Cc1ccccc1)n1cncn1 (stereo not drawn) 35.5 µM [activator, single point]
O=C(Cc1ccccc1[N+](=O)[O-])c1ccc2c(c1)OCO2 20 µM [activator, partial curve]
CCN(CC(=O)Nc1cc(Cl)ccc1C)C(=O)Cc1ccsc1 28.2 µM [activator, partial curve, poor fit]
CC(C)N(C(=O)CSc1nc2ccccc2n1Cc1ccccc1F)C(C)C 35.5 µM [activator, single point]
CCOc1ccc(Br)cc1CNc1ccc2c(c1)OCCO2 11.2 µM [activator, partial curve]
COc1nc(Nc2ccc(C(C)C)cc2)nc(OC)n1 11.2 µM [activator, single point]
O=C(c1noc2c1CCCC2)N1CCc2c([nH]c3ccccc23)C1c1ccccn1 (stereo not drawn) 22.4 µM [activator, single point]
O=S(=O)(CCN1CCCCC1)Oc1ccc(Cl)cc1Cl 11.2 µM [activator, single point]
CCc1ccccc1NC(=O)CSc1nnc(CC)c(CC)n1 35.5 µM [activator, partial curve, poor fit]
Cc1ccc2nc(NC(=O)c3cc(=O)c4cc(Cl)ccc4o3)sc2c1 0.316 µM [activator, full curve, poor fit]
O=C(NCCc1ccc(Cl)cc1)c1ccc(CS(=O)(=O)Cc2ccccc2F)o1 35.5 µM [activator, partial curve]
Cc1cccc2c1NC(=O)/C2=C\C(=O)c1cccs1 35.5 µM [activator, partial curve]
COc1cc(C=O)ccc1OC(=O)c1ccc(C(C)C)cc1 17.8 µM [activator, single point]
COc1ccc(OC)c(NC(=O)COC(=O)c2c3c(nc4ccccc24)CCCC3)c1 35.5 µM [activator, single point]
N#Cc1cc(-c2ccccc2)nn1-c1ccccc1 11.2 µM [activator, partial curve]
COc1ccc(CCCC(=O)Nc2ccc(F)cc2)cc1 35.5 µM [activator, partial curve]
CC(=O)N=C(N)Sc1nc2ccccc2[nH]1 35.5 µM [activator, single point]
CCOC(=O)[C@H]1[C@H]2COc3ccc(Cl)cc3[C@@H]2N2C(=O)c3cc(Br)ccc3NC(=O)[C@@]12C 5.01 µM [activator, full curve]
CCn1cc(CNC(=O)c2cc(COc3ccc(F)cc3F)on2)cn1 14.1 µM [activator, partial curve]
CC1(C(=O)N2CCCCC2)CCN1C(=O)Cc1ccc(-c2ccccc2)cc1 (stereo not drawn) 35.5 µM [activator, single point]
CC(=O)Oc1ccc2c3c(c(=O)oc2c1)CCCC3 15.8 µM [activator, partial curve]
Cc1ccccc1C(=O)NC(=S)NCCc1ccccc1 17.8 µM [activator, partial curve]
Cc1cccc(N/C=C/C(=O)c2cccs2)c1C 35.5 µM [activator, single point]
COc1ccc(NC(=O)C2(C)Cc3c(-c4ccc5c(c4)OCO5)ccnc3O2)cc1OC (stereo not drawn) 0.562 µM [activator, full curve, poor fit]
CCC(CC)C(=O)N(C)c1c(C)nc2c(OCc3ccccc3C(=O)OC)cccn12 0.501 µM [activator, full curve, poor fit]
O=C(c1cccc(Cl)c1)C1CCCN(S(=O)(=O)c2ccccc2)C1 (stereo not drawn) 10 µM [activator, partial curve]
Brc1ccccc1Cn1c(-c2cscn2)nc2ccccc21 22.4 µM [activator, single point]
CC(C)N(Cc1ccccc1)C(=O)C1CCCN(c2ncnc3c2nc2n3CCCCC2)C1 (stereo not drawn) 31.6 µM [activator, single point]

Growth rescue (activation), inactive:
COc1ccc(Cl)cc1NC(=S)NCCc1ccc(S(N)(=O)=O)cc1 -5.32% [at 9.22 µM]
